# Source: the supplement of paper PMC8728848
# This is one part of the list.
# How the values were obtained:
# Test in all cases: glycan array binding signal (z-score within array); higher = stronger binding
# Details in all cases: glycan notation: IUPAC condensed, linker removed
# [1] = biological target: GlcNAc(b1-2)[GlcNAc(b1-4)]Man(a1-3)[GlcNAc(b1-4)][GlcNAc(b1-2)[GlcNAc(b1-6)]Man(a1-6)]Man(b1-4)GlcNAc(b1-4)GlcNAc
# Procedure, shortened: (§1)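 Columns mapping to the same glycan were averaged after glycan names were converted to IUPAC-condensed notation. The data come from 3228 arrays in the Consortium for Functional Glycomics database, limited to those with an available protein sequence. Binding is reported as a within-array Z-score averaged across arrays of one protein sequence and across linkers.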
# [2] = biological target: GlcNAc(b1-2)[GlcNAc(b1-4)]Man(a1-3)[GlcNAc(b1-4)][GlcNAc(b1-2)[GlcNAc(b1-6)]Man(a1-6)]Man(b1-4)GlcNAc(b1-4)[Fuc(a1-6)]GlcNAc
# Procedure, shortened: as §1
# [3] = biological target: GlcNAc(b1-2)[GlcNAc(b1-6)]Man(a1-6)[GlcNAc(b1-2)Man(a1-3)]Man(b1-4)GlcNAc(b1-4)GlcNAc
# Procedure, shortened: as §1
# [4] = biological target: GlcNAc(b1-2)[GlcNAc(b1-6)]Man(a1-6)[GlcNAc(b1-2)Man(a1-3)]Man(b1-4)GlcNAc(b1-4)[Fuc(a1-6)]GlcNAc
# Procedure, shortened: as §1
# [5] = biological target: GlcNAc(b1-2)[GlcNAc(b1-6)]Man(a1-6)[GlcNAc(b1-4)][GlcNAc(b1-2)Man(a1-3)]Man(b1-4)GlcNAc(b1-4)GlcNAc
# Procedure, shortened: as §1
# GlcNAc(b1-3)Fuc = biological target: GlcNAc(b1-3)Fuc
# Procedure, shortened: as §1
# GlcNAc(b1-3)Gal = biological target: GlcNAc(b1-3)Gal
# Procedure, shortened: as §1
# [6] = biological target: GlcNAc(b1-3)Gal(b1-3)GalNAc
# Procedure, shortened: as §1
# GlcNAc(b1-3)Gal(b1-4)Glc = biological target: GlcNAc(b1-3)Gal(b1-4)Glc
# Procedure, shortened: as §1
# [7] = biological target: GlcNAc(b1-3)Gal(b1-4)GlcNAc
# Procedure, shortened: as §1
# [8] = biological target: GlcNAc(b1-3)Gal(b1-4)GlcNAc(b1-2)Man(a1-3)[GlcNAc(b1-3)Gal(b1-4)GlcNAc(b1-2)Man(a1-6)]Man(b1-4)GlcNAc(b1-4)GlcNAc
# Procedure, shortened: as §1
# [9] = biological target: GlcNAc(b1-3)Gal(b1-4)GlcNAc(b1-2)Man(a1-3)[GlcNAc(b1-3)Gal(b1-4)GlcNAc(b1-2)Man(a1-6)]Man(b1-4)GlcNAc(b1-4)[Fuc(a1-6)]GlcNAc
# Procedure, shortened: as §1
# [10] = biological target: GlcNAc(b1-3)Gal(b1-4)GlcNAc(b1-2)[GlcNAc(b1-3)Gal(b1-4)GlcNAc(b1-6)]Man(a1-6)[GlcNAc(b1-3)Gal(b1-4)GlcNAc(b1-2)Man(a1-3)]Man(b1-4)GlcNAc(b1-4)GlcNAc
# Procedure, shortened: as §1
# [11] = biological target: GlcNAc(b1-3)Gal(b1-4)GlcNAc(b1-3)Gal(b1-4)GlcNAc
# Procedure, shortened: as §1
# [12] = biological target: GlcNAc(b1-3)Gal(b1-4)GlcNAc(b1-3)Gal(b1-4)GlcNAc(b1-2)Man(a1-3)[GlcNAc(b1-3)Gal(b1-4)GlcNAc(b1-3)Gal(b1-4)GlcNAc(b1-2)Man(a1-6)]Man(b1-4)GlcNAc(b1-4)GlcNAc
# Procedure, shortened: as §1
# [13] = biological target: GlcNAc(b1-3)Gal(b1-4)GlcNAc(b1-3)Gal(b1-4)GlcNAc(b1-2)Man(a1-3)[GlcNAc(b1-3)Gal(b1-4)GlcNAc(b1-3)Gal(b1-4)GlcNAc(b1-2)Man(a1-6)]Man(b1-4)GlcNAc(b1-4)[Fuc(a1-6)]GlcNAc
# Procedure, shortened: as §1
# [14] = biological target: GlcNAc(b1-3)Gal(b1-4)GlcNAc(b1-3)Gal(b1-4)GlcNAc(b1-2)[GlcNAc(b1-3)Gal(b1-4)GlcNAc(b1-3)Gal(b1-4)GlcNAc(b1-6)]Man(a1-6)[GlcNAc(b1-3)Gal(b1-4)GlcNAc(b1-3)Gal(b1-4)GlcNAc(b1-2)Man(a1-3)]Man(b1-4)GlcNAc(b1-4)[Fuc(a1-6)]GlcNAc
# Procedure, shortened: as §1
# [15] = biological target: GlcNAc(b1-3)Gal(b1-4)GlcNAc(b1-3)Gal(b1-4)GlcNAc(b1-3)Gal(b1-4)GlcNAc(b1-2)Man(a1-3)[GlcNAc(b1-3)Gal(b1-4)GlcNAc(b1-3)Gal(b1-4)GlcNAc(b1-3)Gal(b1-4)GlcNAc(b1-2)Man(a1-6)]Man(b1-4)GlcNAc(b1-4)GlcNAc
# Procedure, shortened: as §1
# [16] = biological target: GlcNAc(b1-3)Gal(b1-4)GlcNAc(b1-3)Gal(b1-4)GlcNAc(b1-3)Gal(b1-4)GlcNAc(b1-2)Man(a1-3)[GlcNAc(b1-3)Gal(b1-4)GlcNAc(b1-3)Gal(b1-4)GlcNAc(b1-3)Gal(b1-4)GlcNAc(b1-2)Man(a1-6)]Man(b1-4)GlcNAc(b1-4)[Fuc(a1-6)]GlcNAc
# Procedure, shortened: as §1
# [17] = biological target: GlcNAc(b1-3)Gal(b1-4)GlcNAc(b1-3)Gal(b1-4)GlcNAc(b1-3)Gal(b1-4)GlcNAc(b1-2)[GlcNAc(b1-3)Gal(b1-4)GlcNAc(b1-3)Gal(b1-4)GlcNAc(b1-3)Gal(b1-4)GlcNAc(b1-6)]Man(a1-6)[GlcNAc(b1-3)Gal(b1-4)GlcNAc(b1-3)Gal(b1-4)GlcNAc(b1-3)Gal(b1-4)GlcNAc(b1-2)Man(a1-3)]Man(b1-4)GlcNAc(b1-4)[Fuc(a1-6)]GlcNAc
# Procedure, shortened: as §1
# [18] = biological target: GlcNAc(b1-3)Gal(b1-4)GlcNAc(b1-3)Gal(b1-4)GlcNAc(b1-3)Gal(b1-4)GlcNAc(b1-3)Gal(b1-4)GlcNAc(b1-2)Man(a1-3)[GlcNAc(b1-3)Gal(b1-4)GlcNAc(b1-3)Gal(b1-4)GlcNAc(b1-3)Gal(b1-4)GlcNAc(b1-3)Gal(b1-4)GlcNAc(b1-2)Man(a1-6)]Man(b1-4)GlcNAc(b1-4)GlcNAc
# Procedure, shortened: as §1
# [19] = biological target: GlcNAc(b1-3)Gal(b1-4)GlcNAc(b1-3)Gal(b1-4)GlcNAc(b1-3)Gal(b1-4)GlcNAc(b1-3)Gal(b1-4)GlcNAc(b1-2)Man(a1-3)[GlcNAc(b1-3)Gal(b1-4)GlcNAc(b1-3)Gal(b1-4)GlcNAc(b1-3)Gal(b1-4)GlcNAc(b1-3)Gal(b1-4)GlcNAc(b1-2)Man(a1-6)]Man(b1-4)GlcNAc(b1-4)[Fuc(a1-6)]GlcNAc
# Procedure, shortened: as §1
# [20] = biological target: GlcNAc(b1-3)Gal(b1-4)GlcNAc(b1-3)Gal(b1-4)GlcNAc(b1-3)Gal(b1-4)GlcNAc(b1-3)Gal(b1-4)GlcNAc(b1-2)[GlcNAc(b1-3)Gal(b1-4)GlcNAc(b1-3)Gal(b1-4)GlcNAc(b1-3)Gal(b1-4)GlcNAc(b1-3)Gal(b1-4)GlcNAc(b1-6)]Man(a1-6)[GlcNAc(b1-3)Gal(b1-4)GlcNAc(b1-3)Gal(b1-4)GlcNAc(b1-3)Gal(b1-4)GlcNAc(b1-3)Gal(b1-4)GlcNAc(b1-2)Man(a1-3)]Man(b1-4)GlcNAc(b1-4)[Fuc(a1-6)]GlcNAc
# Procedure, shortened: as §1
# [21] = biological target: GlcNAc(b1-3)Gal(b1-4)GlcNAc(b1-3)Gal(b1-4)GlcNAc(b1-3)GalNAc
# Procedure, shortened: as §1
# [22] = biological target: GlcNAc(b1-3)Gal(b1-4)GlcNAc(b1-3)GalNAc
# Procedure, shortened: as §1
# [23] = biological target: GlcNAc(b1-3)Gal(b1-4)GlcNAc(b1-3)[GlcNAc(b1-3)Gal(b1-4)GlcNAc(b1-3)]GalNAc
# Procedure, shortened: as §1
# [24] = biological target: GlcNAc(b1-3)Gal(b1-4)GlcNAc(b1-6)[Gal(b1-3)]GalNAc
# Procedure, shortened: as §1
# [25] = biological target: GlcNAc(b1-3)Gal(b1-4)GlcNAc(b1-6)[GlcNAc(b1-3)Gal(b1-3)]GalNAc
# Procedure, shortened: as §1
# [26] = biological target: GlcNAc(b1-3)Gal(b1-4)GlcNAc(b1-6)[GlcNAc(b1-3)]Gal(b1-4)GlcNAc
# Procedure, shortened: as §1
# GlcNAc(b1-3)GalNAc = biological target: GlcNAc(b1-3)GalNAc
# Procedure, shortened: as §1
# GlcNAc(b1-3)Man = biological target: GlcNAc(b1-3)Man
# Procedure, shortened: as §1
# [27] = biological target: GlcNAc(b1-3)[GlcNAc(b1-4)][GlcNAc(b1-6)]GlcNAc
# Procedure, shortened: as §1
# [28] = biological target: GlcNAc(b1-3)[GlcNAc(b1-6)]Gal(b1-4)GlcNAc
# Procedure, shortened: as §1
# [29] = biological target: GlcNAc(b1-3)[GlcNAc(b1-6)]GalNAc
# Procedure, shortened: as §1
# [30] = biological target: GlcNAc(b1-4)Gal(b1-4)GlcNAc
# Procedure, shortened: as §1
# GlcNAc(b1-4)GlcNAc = biological target: GlcNAc(b1-4)GlcNAc
# Procedure, shortened: as §1
# [31] = biological target: GlcNAc(b1-4)GlcNAc(b1-4)GlcNAc
# Procedure, shortened: as §1
# [32] = biological target: GlcNAc(b1-4)GlcNAc(b1-4)GlcNAc(b1-4)GlcNAc(b1-4)GlcNAc
# Procedure, shortened: as §1
binder,measurement,setting,value
PX14343A-bvu-539-29-539 (Bacteroides vulgatus) (protein) DSLTESSSNTFWQTPDDALMALASCYDALQSNQLYNSDQYSLGPLYMDCISDNGGHFNWSGWMEGYDMAMGIHTPSSSIIGSYWKDCYEVISRCNVLIANIDRVDMDASQKAIYQAEAKTIRALMYINLTMTYQDVPFLTAPLTIDEAECEKTDRAAIVAHVMTDLQDAAEVLPQNASSRGHITKGAALSLLGRVALYNEKWDDAIAAYKQVQGLGYSLDPSYAKLFTQSGETSPEIIFAVRYEGPGMSEGAAFNAHWNTPLEAMNGTIDLADAYYCKDGKPTTDTKIAELNGGGGLDVSKPNPAHFENRDPRLYSTLFVPGMLWNGKGGIDTSASNPYANVYGGAAASLSTVYVYKYFDPTDTSNSWDNGQDFYVVRYAEVLLSLAEAMVQKGGYVYSDVTALVNEVRQRADVNMPTVEEVEGTSLSKDELLEVIKHERRVELAFEGLRLFDLYRWKELDKAVANIENERTMYGLAYEARKFNGERDYVWPLPTAELDTNKKLVQHDLWK,glycan array binding signal (z-score),[1],-0.087
same,glycan array binding signal (z-score),[2],-0.396
same,glycan array binding signal (z-score),[3],-0.402
same,glycan array binding signal (z-score),[4],-0.217
same,glycan array binding signal (z-score),[5],-0.208
same,glycan array binding signal (z-score),GlcNAc(b1-3)Fuc,-0.112
same,glycan array binding signal (z-score),GlcNAc(b1-3)Gal,-0.374
same,glycan array binding signal (z-score),[6],-0.175
same,glycan array binding signal (z-score),GlcNAc(b1-3)Gal(b1-4)Glc,-0.078
same,glycan array binding signal (z-score),[7],-0.44
same,glycan array binding signal (z-score),[8],-0.114
same,glycan array binding signal (z-score),[9],0.091
same,glycan array binding signal (z-score),[10],-0.094
same,glycan array binding signal (z-score),[11],-0.072
same,glycan array binding signal (z-score),[12],0.153
same,glycan array binding signal (z-score),[13],-0.295
same,glycan array binding signal (z-score),[14],0.035
same,glycan array binding signal (z-score),[15],-0.157
same,glycan array binding signal (z-score),[16],-0.151
same,glycan array binding signal (z-score),[17],-0.241
same,glycan array binding signal (z-score),[18],2.27
same,glycan array binding signal (z-score),[19],0.355
same,glycan array binding signal (z-score),[20],0.319
same,glycan array binding signal (z-score),[21],0.227
same,glycan array binding signal (z-score),[22],-0.331
same,glycan array binding signal (z-score),[23],-0.113
same,glycan array binding signal (z-score),[24],-0.357
same,glycan array binding signal (z-score),[25],-0.363
same,glycan array binding signal (z-score),[26],-0.311
same,glycan array binding signal (z-score),GlcNAc(b1-3)GalNAc,-0.233
same,glycan array binding signal (z-score),GlcNAc(b1-3)Man,-0.249
same,glycan array binding signal (z-score),[27],-0.368
same,glycan array binding signal (z-score),[28],-0.27
same,glycan array binding signal (z-score),[29],0.118
same,glycan array binding signal (z-score),[30],-0.308
same,glycan array binding signal (z-score),GlcNAc(b1-4)GlcNAc,-0.324
same,glycan array binding signal (z-score),[31],-0.345
same,glycan array binding signal (z-score),[32],-0.313
